Reference: article doi:10.1101/2021.04.26.441477 (bioRxiv, 2021)
“And” between values parts separate entries of the source, which are not always exact repeats. Equal entries are not always repeated.

Molecular target: the molecule itself
Assay: cross-linking

B1: Nucleolin in Nucleolin immunoprecipitates (Nucleolin IP) (natural protein)
chain: not shown
stoichiometry N: 2 and 4 and 6
